{
  "source": "PubChem BioAssay AID1347073",
  "about": "(National Center for Advancing Translational Sciences (NCATS), 2019)",
  "note": "The whole screen tested about 45,000 compounds, of which about 200 (0.44%) were called active. About 7% were inconclusive and are not listed. Calls come from the whole dose curve; as a rule, active = well fitted activation curve with a large enough effect; inconclusive = small, poorly fitted or top-dose-only effect; inactive = no such curve, though single readings can be large or run the other way. The list shows a part of the results.",
  "data": [
    {"experiment": "qHTS of TDP-43 Inhibitors: NCGC Sytravon Library Screen; note: 0% is about no effect; nearly all actives have a fitted effect of over 55% in size", "conditions": "yeast TDP-43 toxicity rescue, BacTiter-Glo growth, 24 h; at 46.1 µM (top of the series)", "how_it_was_run": "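TDP-43-expressing yeast, pregrown in raffinose, seeded at OD600 0.02 in galactose medium with compound for 24 hr at 30 deg C. Growth read by BacTiter-Glo luminescence, so rescue of toxicity appears as activation.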", "values": [
      {"compound": "CCCN1CCC2(CC1)NC(CO)(CO)CO2", "growth rescue (activation)": "inactive: 3.67%"},
      {"compound": "Cc1ccc(C2N3CCCN23)cc1", "note": "(stereo unspecified)", "growth rescue (activation)": "inactive: 4.5%"},
      {"compound": "CNS(=O)(=O)c1ccc(N=Cc2c(O)n(-c3ccc(C)cc3)c(=O)[nH]c2=O)cc1", "growth rescue (activation)": "inactive: -16.8%"},
      {"compound": "COP(=O)(NS(=O)(=O)c1ccccc1)OC", "growth rescue (activation)": "inactive: -0.45%"},
      {"compound": "COc1ccc(-n2c(O)c(/C=C3\\C=Nc4ccc(Br)cc43)c(=O)[nH]c2=O)c(OC)c1", "growth rescue (activation)": "inactive: 16.7%"},
      {"compound": "Cn1c(O)c(C=NCCN2CCOCC2)c(=O)[nH]c1=S", "growth rescue (activation)": "inactive: 5.4%"},
      {"compound": "C/C(=N\\N1CCN(C)CC1)c1c(O)n(Cc2ccccc2)c(=O)[nH]c1=O", "growth rescue (activation)": "inactive: -5.36%"},
      {"compound": "O=C(O)C(Cc1cnc[nH]1)NS(=O)(=O)c1ccc(Cl)cc1", "note": "(stereo unspecified)", "growth rescue (activation)": "inactive: 5.09%"},
      {"compound": "Cc1ccc(NC(=O)Cn2cc(C(=O)c3ccccc3)c3ccccc32)c(C)c1", "growth rescue (activation)": "inactive: 5.44%"},
      {"compound": "FC(F)(F)c1ccccc1NC1=NCCCS1", "growth rescue (activation)": "inactive: 8.12%"},
      {"compound": "Cc1cc(=O)[nH]c(CCl)n1", "growth rescue (activation)": "inactive: -6.53%"},
      {"compound": "CN(C)C1(c2nnnn2CCOC(=O)Nc2ccc(Cl)cc2)CCCCC1", "growth rescue (activation)": "inactive: 9.2%"},
      {"compound": "CCC(=O)c1ccc(OCC(=O)N2CCN(CC(=O)Nc3ccccc3C(F)(F)F)CC2)cc1", "growth rescue (activation)": "inactive: 3.13%"},
      {"compound": "CC1(C)OC(c2ccccc2)=C/C(=C/C=C2C(=O)NC(=S)NC2=O)O1", "growth rescue (activation)": "inactive: -16.5%"},
      {"compound": "CC(=O)C1C2c3ccccc3OC1(C)N=c1s/c(=C/c3cn(C)nc3C)c(=O)n12", "note": "(stereo unspecified)", "growth rescue (activation)": "inactive: 20.4%"},
      {"compound": "Cc1cc(C)nc(NS(=O)(=O)c2ccc(N=Cc3c(O)n(C)c(=O)n(C)c3=O)cc2)n1", "growth rescue (activation)": "inactive: -7.57%"},
      {"compound": "C[C@]12CCC3C(CC[C@H]4C[C@@H](O)CC[C@]34C)C1CC[C@@H]2N", "note": "(stereo partly specified)", "growth rescue (activation)": "inactive: -25.6%"},
      {"compound": "CC(OC(=O)c1cn(C)c2ccccc12)C(=O)N(C)c1ccccc1", "note": "(stereo unspecified)", "growth rescue (activation)": "inactive: 29.8%"},
      {"compound": "COc1ccccc1CN1CCN(Cc2ccc(Cl)cc2)CC1", "growth rescue (activation)": "inactive: -7.92%"},
      {"compound": "C=CCn1c(O)c(/C(C)=N/NC(=S)Nc2ccccc2)c(=O)[nH]c1=O", "growth rescue (activation)": "inactive: 4.47%"},
      {"compound": "CCn1c(O)c(/C=N/NC(=O)c2ccccc2)c(=O)n(CC)c1=S", "growth rescue (activation)": "inactive: -10.4%"},
      {"compound": "N#CCCn1cc(C(=O)Nc2ccc(F)cc2)c(-c2ccc([N+](=O)[O-])cc2)n1", "growth rescue (activation)": "inactive: 0.0769%"},
      {"compound": "Clc1ccccc1NC1=NCCCS1", "growth rescue (activation)": "inactive: 2.04%"},
      {"compound": "COc1ccc(N=Cc2c(O)n(-c3ccc(C)cc3)c(=O)[nH]c2=O)cc1", "growth rescue (activation)": "inactive: -4.59%"},
      {"compound": "O=c1c2ccccc2nc(/C=C/c2ccccc2F)n1-c1cccc(O)c1", "growth rescue (activation)": "inactive: 2.96%"},
      {"compound": "COc1ccc(-n2c(-c3ccccc3[N+](=O)[O-])nc3ccccc3c2=O)cc1", "growth rescue (activation)": "inactive: -2.84%"}
    ]}
  ]
}
